Data taken from PubChem BioAssay AID652104 (National Center for Advancing Translational Sciences (NCATS), 2013).
Out of some 410,000 compounds screened, about 7,200 (1.8%) were called active. Inconclusive results, whose numbers are uncertain, are shown with a selection of clear calls. Calls follow the shape of the dose curve; as a rule, active = well fitted activation curve with a large enough effect; inconclusive = small, poorly fitted or top-dose-only effect, or another doubt; inactive = no such curve, though single readings can be large or run the other way. Potencies of inconclusive entries are left out as doubtful fits.

Assay: qHTS of TDP-43 Inhibitors; also: nearly all actives have a fitted effect of over 50% in size; as to growth rescue (activation): % of control where 0% means no effect
Settings: TDP-43 expressing yeast growth rescue, BacTiter-Glo, 24 h; growth rescue (activation): at 46.1 µM (top of the series) unless noted
Description: The goal of this project is to identify new chemical probes capable of reversing the toxicity associated with TDP-43 which is associated with frontotemporal lobar degeneration and amyotrophic lateral sclerosis. These compounds will provide a complementary approach to deciphering the tangled mechanisms of toxicity and protection that we have uncovered through genome-wide genetic screens and are beginning to uncover in a large-scale proteomics analysis with mass spectroscopy.
To this end, a miniaturized assay was developed to be screened against the Molecular Libraries Small Molecule Repository (MLSMR) to discover TDP-43 inhibitors. Please note that in the set-up this yeast-based assay compounds that inhibit as TDP-43, have a read-out as activators.
NIH Chemical Genomics Center [NCGC]
NIH Molecular Libraries Probe Centers Network [MLPCN]
Assay Submitter (PI): Susan Lindquist, Whitehead Institute/MIT
Dispense 2.5 microL yeast galactose medium per 1536-well plate, pin compound, dispense 2.5 microL TDP-43 expressing yeast in galactose medium at OD600=0.02 (pregrown in raffinose medium to mid-log phase) per well, incubate for 24 hr at 30 deg C, and cell growth will be measured using 5 microL of Bactiter/Glo reagent to entire plate and read using Luminescence Protocol in ViewLux.
Potency is read from the fitted curve at half-maximal effect; tags tell the direction and shape of the fitted curve.

SMILES | Potency | growth rescue (activation)
Cc1nn(C)c(C)c1Sc1ccccc1N | inconclusive [activator, partial curve, poor fit] | 
O=C(Nc1ccc(O)cc1)c1ccc(NC(=O)C2CCCO2)cc1 (stereo not given) | inconclusive [activator, single point] | 
CCOC(=O)N1CCN(/C=C(\C#N)c2nc3ccccc3s2)CC1 | inconclusive [activator, single point] | 
CCCCNC(=O)CNC(=S)N(Cc1ccc(C)cc1)Cc1ccco1 | inconclusive [activator, partial curve] | 
COc1ccc(S(=O)(=O)Oc2ccc3ccccc3c2)cc1 | inconclusive [activator, partial curve] | 
CC1CC(=S)Nc2ccccc2N1Cc1ccccc1 (stereo not given) | active: 14.1 µM | 
CC(C)[C@@H]1Cc2[nH][nH]c(=O)c2[C@H](c2ccc(F)cc2)O1 | active: 11.2 µM | 
COC(=O)[C@@]1(Cc2ccccc2)[C@H]2C(=O)N(C)C(=O)[C@H]2[C@H]2CN=C(SCC(=O)c3ccccc3)N21 | inconclusive [activator, partial curve] | 
O=C(Nc1cccc(S(=O)(=O)N2CCCCC2)c1)C1COc2ccccc2O1 (stereo not given) | inconclusive [activator, single point] | 
C(=N\Nc1nc(-c2ccccc2)cs1)/c1ccco1 | inconclusive [activator, partial curve] | 
COc1ccc(OCCOc2ccc(C)nc2[N+](=O)[O-])cc1 | inconclusive [activator, partial curve] | 
O=C(/C=C/c1ccc2c(c1)OCO2)NCCSCc1cccc(Cl)c1 | inconclusive [activator, single point] | 
C=CCn1c(SCC(=O)Nc2sc(C)c(C)c2C(=O)OCC)nnc1-c1sc(N)nc1C | inconclusive [activator, partial curve] | 
CC1CCN(C(=O)c2cc3nc(C4CC4)cc(C(F)(F)F)n3n2)CC1 | inconclusive [activator, single point] | 
O=C1/C(=C/c2cccs2)NC(=S)N1C1CC1 | inconclusive [activator, single point] | 
O=C(/C=C/c1cccc(Br)c1)NCC1CCCCC1 | inconclusive [activator, full curve] | 
CC1(C)CC(=O)C(Sc2ccc(Br)cc2)=C(O)C1 | active: 12.6 µM | 
Cc1cccc(NC(=O)C2C3C=CC(C4CC34)C2C(=O)O)c1 (stereo not given) | inconclusive [activator, single point] | 
COc1ccccc1OCCOCCOc1ccc(C)cc1[N+](=O)[O-] | inconclusive [activator, partial curve, poor fit] | 
CCOC(=O)c1ccc(N=C2NC(=O)CS2)cc1 | inconclusive [activator, single point] | 
O=C(CCSc1ccc(Cl)cc1)N1CCN(c2ncccn2)CC1 | inconclusive [activator, single point] | 
CCOC(=O)c1ccc(NC(=O)Nc2cccc(C)n2)cc1 | inconclusive [activator, full curve] | 

SMILES | Potency | growth rescue (activation)
COc1ccc(O)c(/C=N/NC(=O)c2ccc(OCc3cccc(Br)c3)cc2)c1 | inconclusive [activator, single point] | 
CCCCNC(=O)C1(C)CCN1C(=O)c1ccc(F)c(C)c1 (stereo not given) | inconclusive [activator, full curve, poor fit] | 
Cc1ccc(C)c(S(=O)(=O)N2CCN(C(=O)CCC(=O)c3cc(C)sc3C)CC2)c1 | inconclusive [activator, single point] | 
Cc1ccc([C@@H]2CC=C(C(=O)O)[C@H](c3ccc(F)cc3)N2S(=O)(=O)c2ccccc2C)cc1 | active: 28.2 µM | 
O=C(NC(=S)N1CCN(c2ccc(F)cc2)CC1)c1cccs1 | inconclusive [activator, single point] | 
COCCCNC(=O)c1ccc(-n2c(-c3ccccc3)cc3c2CCCC3)cc1 |  | inactive: 4.58%
O=C(OCc1cc(=O)n2nc(C3CCCCC3)sc2n1)c1ccccc1Cl |  | inactive: 15.7%
C/C(=N/NS(=O)(=O)c1ccc(Cl)cc1)c1cccc(NC(=O)c2ccc(Cl)cc2Cl)c1 | active: 12.6 µM | 
Clc1ccc2ncc(-c3nnnn3-c3ccccc3)c(-c3ccccc3)c2c1 | inconclusive [activator, single point] | 
Cc1ccc(N2CCN(C(=O)c3ccccc3F)CC2)c(C)c1 | inconclusive [activator, full curve] | 
Nc1nonc1-n1nnc(C(=O)N/N=C/c2ccc(OCc3ccccc3)cc2)c1CN1CCCCC1 | inconclusive [activator, single point] | 
CCCC1C(=O)Nc2ccccc2N1C(=O)c1ccc(C(C)(C)C)cc1 (stereo not given) | inconclusive [activator, single point] | 
COc1ccc(-c2n[nH]c(=S)n2-c2ccccc2C)cc1 | inconclusive [activator, partial curve] | 
COc1ccc(Nc2nc3cc(-c4ccsc4)sc3c(=O)n2C)cc1OC | inconclusive [activator, single point] | 
N#Cc1c2n(c3c(=O)n(Cc4ccc(Cl)cc4)cnc13)CCCCC2 | active: 20 µM | 
Cc1ccc(S(=O)(=O)N2[C@@H](c3ccccc3)C(C(=O)O)=CC[C@H]2c2ccc(Cl)c(Cl)c2)cc1 | inconclusive [activator, single point] | 
Cc1ccccc1CSCCNC(=O)CSCc1ccc([N+](=O)[O-])cc1 | inconclusive [activator, single point] | 
CCc1ccc(NC(=S)Nc2cc(C(=O)O)ccc2N2CC3CC(C2)c2cccc(=O)n2C3)cc1 (stereo not given) | inconclusive [activator, single point] | 
CCN(CC)C(=O)Cn1cc(S(=O)(=O)CC(=O)Nc2ccccc2C)c2ccccc21 |  | inactive: 12.9%
CCOC(=O)c1sc(NC(=S)NC(=O)CC(C)C)cc1C | inconclusive [activator, single point] | 
CC(=NCCCn1ccnc1)c1c(C)[nH]n(-c2ccc([N+](=O)[O-])cc2)c1=O |  | inactive: -6.49%
Cc1c(Cl)cnc(NC(=O)COC(=O)C2CCCC2)c1Cl | inconclusive [activator, partial curve] | 

SMILES | Potency | growth rescue (activation)
N#Cc1c(NCCCO)nc(-c2ccco2)c2c1CCCC2 | inconclusive [activator, single point] | 
c1ccc(CCNc2nc3ccccc3s2)cc1 | inconclusive [activator, single point] | 
COc1ccc2c(CN3CCN(c4ccccc4F)CC3)cc(=O)oc2c1 | inconclusive [activator, full curve] | 
Cc1ccc2cccc(NC(=S)NC(=O)c3ccnn3C)c2n1 | inconclusive [activator, partial curve] | 
CCOc1ccc(CCNC(=O)C(C)N2C(=O)CC(C)(C)Sc3ccccc32)cc1 (stereo not given) | inconclusive [activator, single point] | 
COc1ccc(-c2ccc3[nH]c4c(c3c2)CCN2C(=O)[C@@H]([C@H](C)O)[C@@H](N(C)C(=O)Nc3ccccc3)C[C@@H]42)cc1 | inconclusive [activator, partial curve] | 
O=C(CSc1nnnn1-c1cccc2c1CCCC2)N1CCOCC1 |  | inactive: 4.2%
O=C(CSCc1ccc(F)cc1)N1CCN(c2ccc(Cl)cc2)CC1 | active: 17.8 µM | 
CCC(=O)Nc1ccc2nn(-c3ccc(F)cc3)nc2c1 | inconclusive [activator, partial curve] | 
COc1ccc(-c2cc(C(F)(F)F)n3ncc(C(=O)NCc4ccco4)c3n2)cc1 | inconclusive [activator, full curve] | 
O=S(=O)(NC1c2cccc3cccc(c23)C1Sc1ncccn1)c1ccc(Cl)cc1 (stereo not given) | inconclusive [activator, single point] | 
COc1ccccc1C(=O)N(Cc1nc(-c2ccc(Cl)cc2)no1)C(C)C | inconclusive [activator, single point] | 
CC(c1ccc2ccccc2c1)c1ccccc1C(=O)O (stereo not given) | active: 5.62 µM | 
COc1cccc(C(=O)CSc2nnnn2C2CCCCC2)c1 | inconclusive [activator, single point] | 
CC(=O)c1cccc(NC(=O)CCc2c(C)nc3c(c(C)nn3-c3ccccc3)c2C)c1 | active: 6.31 µM | 
Cc1ccccc1OCCCC(=O)NC1CCCCC1 | inconclusive [activator, partial curve, poor fit] | 
O=C1Nc2ccc(Cl)cc2/C1=C/C1CC=CCC1 (stereo not given) | inconclusive [activator, single point] | 
Cc1ccc2c(C)c(C(=O)N(C)C(C)c3ccon3)oc2c1C (stereo not given) | inconclusive [activator, single point] | 
COC(=O)[C@@]1(Cc2ccc(F)cc2)[C@H]2c3cc(C(=O)N(C)C)n(Cc4ccsc4Br)c3C[C@H]2CN1C(=O)c1ccccc1 | inconclusive [activator, partial curve, poor fit] | 
CCOc1ccc(N(CC(=O)Nc2ccccc2CC)S(=O)(=O)c2c(C)noc2C)cc1 |  | inactive: 12.2%
O=C(C[C@H]1C[C@H](C(=O)N2CCCCC2)[C@@]2(CCc3ccccc3)c3[nH]c4cc(-c5ccco5)ccc4c3CCN2C1=O)NCCC1=CCCCC1 | inconclusive [activator, single point] | 
